# The other results are listed elsewhere or left out. Many values rest on one well or one pass, so single values are uncertain.
# How the values were obtained:
# Experiment in all cases: cell count relative to DMSO control; melanoma cells; higher = more viable cells
# Conditions in all cases: library dose: standard library concentration; 72 h
# SkMel28 = tested on: SkMel28
# SkMel2 = tested on: SkMel2
# SkMel30 = tested on: SkMel30
# SkMel5 = tested on: SkMel5
# UACC257 = tested on: UACC257
# UACC62 = tested on: UACC62
# WM115 = tested on: WM115
# WM1716 = tested on: WM1716
# WM3526 = tested on: WM3526
# WM1745 = tested on: WM1745
# 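Further: cells treated in 1,536-well plates, then fixed and DAPI-stained, with nuclei counted from automated high-throughput microscope images.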
SMILES,cell count (SkMel28) [%],cell count (SkMel2) [%],cell count (SkMel30) [%],cell count (SkMel5) [%],cell count (UACC257) [%],cell count (UACC62) [%],cell count (WM115) [%],cell count (WM1716) [%],cell count (WM3526) [%],cell count (WM1745) [%]
"N.N.[Cl][Pt][Cl] [cisplatin] + COC(=O)c1sccc1S(=O)(=O)Nc1ccc(Nc2ccccc2)cc1OC [GSK0660] (first compound 8 µM, partner dose 5 µM)",89.9,95.9,121,144,82,86.7,91.2,102,90.7,
"Cn1cc(C2=C(c3cn(C4CCN(Cc5ccccn5)CC4)c4ccccc34)C(=O)NC2=O)c2ccccc21 [Enzastaurin] + O=C(Oc1ccc([N+](=O)[O-])cc1)N1CCC(C(O)(c2ccc3c(c2)OCO3)c2ccc3c(c2)OCO3)CC1 [JZL184] (first compound 4 µM, partner dose 5 µM)",69.3,55.4,82,92.5,85.9,39.2,113,65.5,90.8,
"Cn1cc(C2=C(c3cn(C4CCN(Cc5ccccn5)CC4)c4ccccc34)C(=O)NC2=O)c2ccccc21 [Enzastaurin] + COC(=O)c1sccc1S(=O)(=O)Nc1ccc(Nc2ccccc2)cc1OC [GSK0660] (first compound 4 µM, partner dose 5 µM)",89.3,75.5,99.3,103,81.5,79.7,104,76.3,94.1,
"Cn1cc(C2=C(c3cn(C4CCN(Cc5ccccn5)CC4)c4ccccc34)C(=O)NC2=O)c2ccccc21 [Enzastaurin] + CC(C)(C)c1cnc(CSc2cnc(NC(=O)C3CCNCC3)s2)o1 [SNS-032] (first compound 4 µM, partner dose 0.05 µM)",66.6,,75,55,81.7,50.3,53.8,48.2,74,41.9
"C[C@]12O[C@H](C[C@]1(O)CO)n1c3ccccc3c3c4c(c5c6ccccc6n2c5c31)CNC4=O [Lestaurtinib] + O=C(O)C(=O)Nc1sc2c(c1C(=O)O)CCNC2 [TCS401] (first compound 0.02 µM, partner dose 8.33333 µM)",74.2,101,109,70.9,102,96.2,86.4,108,82.2,
"Cn1cc(C2=C(c3cn(C4CCN(Cc5ccccn5)CC4)c4ccccc34)C(=O)NC2=O)c2ccccc21 [Enzastaurin] + Cc1cc(SCc2sc(-c3ccc(C(F)(F)F)c(F)c3)nc2C)ccc1OCC(=O)O [GW0742] (first compound 4 µM, partner dose 10 µM)",76.9,48.9,103,85.8,101,46.8,94.4,63.1,89.9,
"N.N.[Cl][Pt][Cl] [cisplatin] + Cn1cc(/C=C2\C(=O)Nc3cccnc32)c2ccccc21 [GW441756] (first compound 8 µM, partner dose 2 µM)",48.5,98.8,89.4,78.3,70,55.9,100,105,89.4,
"N.N.[Cl][Pt][Cl] [cisplatin] + O=C(Oc1ccc([N+](=O)[O-])cc1)N1CCC(C(O)(c2ccc3c(c2)OCO3)c2ccc3c(c2)OCO3)CC1 [JZL184] (first compound 8 µM, partner dose 5 µM)",95.1,,101,98.8,93.7,51.2,85.8,80,98,
"N.N.[Cl][Pt][Cl] [cisplatin] + C=CCn1c(=O)c2cnc(Nc3ccc(N4CCN(C)CC4)cc3)nc2n1-c1cccc(C(C)(C)O)n1 [MK1775] (first compound 8 µM, partner dose 0.1 µM)",49.3,,76.8,41.9,64.4,57.5,47.3,71.6,76.2,51.4
"C[C@]12O[C@H](C[C@]1(O)CO)n1c3ccccc3c3c4c(c5c6ccccc6n2c5c31)CNC4=O [Lestaurtinib] + Cc1cc([N+](=O)[O-])ccc1NS(=O)(=O)c1cc(Cl)ccc1Cl [FH535] (first compound 0.02 µM, partner dose 5 µM)",51.1,74.5,74.7,54.3,80.4,72,72.5,72.9,70.9,
"C[C@]12O[C@H](C[C@]1(O)CO)n1c3ccccc3c3c4c(c5c6ccccc6n2c5c31)CNC4=O [Lestaurtinib] + O=S(=O)(c1ccccc1)N(CC(F)(F)F)c1ccc(C(O)(C(F)(F)F)C(F)(F)F)cc1 [T0901317] (first compound 0.02 µM, partner dose 7 µM)",65.3,88.6,101,64.7,77.3,87.7,92.5,101,61.1,
"C[C@]12O[C@H](C[C@]1(O)CO)n1c3ccccc3c3c4c(c5c6ccccc6n2c5c31)CNC4=O [Lestaurtinib] + CCCCCCCCCCCC1=C(O)C(=O)C=C(O)C1=O [Embelin] (first compound 0.02 µM, partner dose 6 µM)",67.6,94.2,104,89.4,81.1,102,91.2,84.4,91.1,
"C[C@]12O[C@H](C[C@]1(O)CO)n1c3ccccc3c3c4c(c5c6ccccc6n2c5c31)CNC4=O [Lestaurtinib] + COc1cc2ncnc(Nc3ccc(Oc4ccccc4)cc3)c2cc1OC [SrcI1] (first compound 0.02 µM, partner dose 10 µM)",50.2,92.1,72.2,50.1,75.6,49.1,50.6,84.4,58.4,
"C[C@]12O[C@H](C[C@]1(O)CO)n1c3ccccc3c3c4c(c5c6ccccc6n2c5c31)CNC4=O [Lestaurtinib] + Oc1nc(-c2ccc(C(F)(F)F)cc2)nc2c1CSCC2 [XAV939] (first compound 0.02 µM, partner dose 10 µM)",55.6,103,88.2,61.9,83.1,99.1,75.9,70.3,75.9,
"C[C@]12O[C@H](C[C@]1(O)CO)n1c3ccccc3c3c4c(c5c6ccccc6n2c5c31)CNC4=O [Lestaurtinib] + COC(=O)c1sccc1S(=O)(=O)Nc1ccc(Nc2ccccc2)cc1OC [GSK0660] (first compound 0.02 µM, partner dose 5 µM)",83.7,103,60.6,61.3,95.2,77.5,100,90,62.6,
"Cn1cc(C2=C(c3cn(C4CCN(Cc5ccccn5)CC4)c4ccccc34)C(=O)NC2=O)c2ccccc21 [Enzastaurin] + C/C(O)=C(\C#N)C(=O)Nc1cc(Br)ccc1Br [LFM-A13] (first compound 4 µM, partner dose 10 µM)",113,72,88.4,81.5,105,65,90.7,54.5,82.7,
"N.N.[Cl][Pt][Cl] [cisplatin] + CCCCCCCCCCCC1=C(O)C(=O)C=C(O)C1=O [Embelin] (first compound 8 µM, partner dose 6 µM)",66,112,95.5,90.6,65.1,79.9,92.3,77.2,88.1,
"C[As](C)SC[C@H](NC(=O)CC[C@H](N)C(=O)O)C(=O)NCC(=O)O [Darinaparsin] + COc1cc(N2CCC(N3CCN(C)CC3)CC2)ccc1Nc1ncc(Cl)c(Nc2ccccc2S(=O)(=O)C(C)C)n1 [NVP-TAE684] (first compound 2 µM, partner dose 0.4 µM)",62,,102,50.5,77.2,108,64.4,58.3,71.9,57
